Measurements: the RNAGym collection of RNA variant scans (doi:10.7554/elife.90254)
Read counts are not given, so values of variants with three or more changes are uncertain.

B1: LINE1-full (parent)
chain: UACGUAGGUGGUUUUCCCCUGAUAGUGCUAAGGGGGCCUGGAAGUUUGGACUGGGCAGAGCUCAACACAGCGUGGCAAAGUGGCUGUGGCUAGACUGCCUCUCUGGAUUCCUCGUCACUCAGCAGGGCAUCUCUGAGAGAAAUGCC

Variants of: B1
Experiment: self-cleavage, relative activity (ratio to wild type); higher = more cleavage; in vitro, sequencing; the parent is a self-cleaving ribozyme

Row | Variant | self-cleavage
1 | U13C A42G U115C G135U | 1.64
2 | A65G U73A U100G | 0
3 | C123U A124G A138G | 0.28
4 | A31C G36A U100G C116A | 1.23
5 | U23C A43U C113U A138G | 1.17
6 | U47A A57G G89C | 0.06
7 | U108C C123U U143C | 2.18
8 | U26A A31G A43G U115C C118U | 0.84
9 | A31U U100C U104C A117U A136G A142G | 1.31
10 | U15G U26G U100C | 0
11 | U5A A30G A67U G137A | 0.14
12 | U13A U26C U47C G72A | 1.02
13 | G11U G35A U39C C146U | 0.77
14 | U39A U62C A67G A77U U132C A138G G144A | 0.18
15 | A50G G97A U143C | 0.04
16 | A42G A69U U104C | 0.14
17 | U52A A77G U85C | 0.44
18 | U12C U14C U39C U47C A59U A79G | 2.04
19 | A2G A65G U102C A141G | 0
20 | U20G A79G U81A | 1.33
21 | U12G U45C U52C | 1.36

Row | Variant | self-cleavage
22 | U15C C28U C63U U73C A129G A138G | 0.17
23 | A2U U20A U134A | 0.48
24 | U9A U15C U29A A43G U115C A140G | 0
25 | A31U A77G U132C | 1.39
26 | A2C U12C A67G A124G | 0
27 | A22G A64G G72A | 0.41
28 | U12C U20C U81A | 1.95
29 | U46A A59G A121G | 0.14
30 | C16U U62C U119A | 0.03
31 | G44A A92G A94G | 0.07
32 | U52C U108A U132A | 0.92
33 | U1C G35A U39C A50G A67U U109C U115G | 0
34 | A2G G10A U119C | 1.08
35 | U26A U85A A117G U134C | 0
36 | A22G A50U U108C | 2.4
37 | C19U G32A U102C | 0.92
38 | C28G A69G U102C | 0
39 | U15A U47A A50G A67G U100C A141U | 0
40 | C37U U39C U47C G86A | 0.09
41 | U132C A138G A140U | 1.37
42 | U5A U14C U85C U87C U143A | 0.51

Row | Variant | self-cleavage
43 | U9C G35A U47A U102C A142G | 1.1
44 | U85C U112C C120U | 0.25
45 | U12C U100C G127U | 1.64
46 | A43G G74A U96A | 0.11
47 | A22U G25A U45C C56G A69C A121U | 0.03
48 | U12C U47C A57U A129U | 0.31
49 | G33U A57G U62A U96C | 0
50 | A50U A78U C123U | 1.45
51 | A57C G88A U104A | 0.04
52 | U14A U47C G55C U87A | 0.02
53 | U1C G32A A67G | 0.38
54 | U29C C90U G122A | 0.11
55 | A107U U134C A140G | 1.64
56 | U100C A121U A136G | 1.82
57 | A24U A43G A65U C84U U112C | 0
58 | A42G G82A A117G A121G | 2.3
59 | U47C A57G U62C U109C | 0
60 | U9C U46C U52A | 0.92
61 | A30U A77G U96A U112C | 0.14
62 | A50G G83A A136U | 0.11
63 | U15A U39G G54U C110U U132A A142G | 0.6

Row | Variant | self-cleavage
64 | U47C C99U U132C U143C | 1.34
65 | U12G U47A A136G | 1.3
66 | A22G A42G A69U U143A | 0.16
67 | U13A U23C A43U A65G | 0.13
68 | A77G A107G A121G | 1.84
69 | U52A U115C A136U A141G | 1.81
70 | G72A A141G A142G | 1.61
71 | U1A U13A A43G U102C | 1.5
72 | A67G U115C U143A | 0.25
73 | U1C U39A A67G U85C U132C | 0
74 | A31G U81C A121U | 0.95
75 | A43G A124G U130A | 0.8
76 | U14C U112C A124G | 1.27
77 | U85A U109C A117G U119A | 0.07
78 | U9A U46C G86A U102C A117U | 0.18
79 | A6U A69G A94G U132C | 0.92
80 | U81C U96A A121U | 0.08
81 | U5A U9A A50U A141U | 0.67
82 | U9A U12C A42G | 0.98
83 | U45A U109A A141G | 2.07
